{
  "source": "PubChem BioAssay AID1347073",
  "about": "(National Center for Advancing Translational Sciences (NCATS), 2019)",
  "note": "Out of some 45,000 compounds screened, about 200 (0.44%) were called active. Roughly 7% stayed inconclusive and do not appear here. The call rests on the fitted dose curve; in most records, active means well fitted activation curve with a large enough effect; inconclusive means small, poorly fitted or top-dose-only effect; inactive means no such curve, though single readings can be large or run the other way. The list shows a part of the results.",
  "data": [
    {"assay": "qHTS of TDP-43 Inhibitors: NCGC Sytravon Library Screen; further: 0% is about no effect; nearly all actives have a fitted effect of over 55% in size", "settings": "yeast TDP-43 toxicity rescue, BacTiter-Glo growth, 24 h; series mostly up to 46.1 µM; growth rescue (activation): at the top concentration", "in_short": "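TDP-43-expressing yeast, pregrown in raffinose, seeded at OD600 0.02 in galactose medium with compound for 24 hr at 30 deg C. Growth read by BacTiter-Glo luminescence, so rescue of toxicity appears as activation.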", "values": [
      {"compound": "Cc1occc1-c1nnc(SCC(=O)c2cc3ccccc3oc2=O)o1", "growth rescue (activation)": "inactive: -22.3%"},
      {"compound": "O=C(N/N=C/c1cccc(NC(=O)c2ccc(Cl)cc2)c1)c1cccc(O)c1", "growth rescue (activation)": "inactive: 5.64%"},
      {"compound": "Cc1cc(Br)ccc1NC(=O)c1cc2c(s1)-c1ccccc1SC2", "growth rescue (activation)": "inactive: 18.1%"},
      {"compound": "COc1ccc(CN(C)C(=O)c2cc(-c3ccc(C)cc3C)nc3ccccc23)c(OC)c1OC", "growth rescue (activation)": "inactive: 20.5%"},
      {"compound": "CCC(C)C(=O)Nc1nnc(SCC(=O)Nc2ccc(F)cc2)s1", "note": "(stereo not drawn)", "growth rescue (activation)": "inactive: -1.1%"},
      {"compound": "Cc1ccc(S(=O)(=O)N/N=C(\\c2ccccc2)c2cccnc2)cc1", "growth rescue (activation)": "inactive: 4.87%"},
      {"compound": "COc1ccc(NC(=S)N2CCN(C(=O)c3ccco3)CC2)cc1", "growth rescue (activation)": "inactive: 14.3%"},
      {"compound": "CCOc1cc(S(=O)(=O)n2ccnc2)ccc1Cl", "growth rescue (activation)": "inactive: -3.19%"},
      {"compound": "O=C(NN1C(=O)C2C(c3ccccc3)C=CC(c3ccccc3)C2C1=O)c1ccccc1", "note": "(stereo not drawn)", "growth rescue (activation)": "inactive: -0.0621%"},
      {"compound": "CC(=O)N/N=C(\\C)CC(=O)Nc1ccc2c(c1)OCCO2", "growth rescue (activation)": "inactive: 2.13%"},
      {"compound": "Cn1cc(CN2CCC(n3nccc3NC(=O)C3CCCC3)CC2)cn1", "growth rescue (activation)": "inactive: 19.9%"},
      {"compound": "Cc1cccc(NC(=S)NC23CN4CN(CN(C4)C2)C3)c1", "growth rescue (activation)": "inactive: 5.14%"},
      {"compound": "COc1cccc(CN2CCCC(C(=O)c3ccc4c(c3)OCO4)C2)c1OC", "note": "(stereo not drawn)", "growth rescue (activation)": "inactive: 7.99%"},
      {"compound": "CCC(=O)Nc1ccc(NC(=O)c2ccc3c(c2)OCO3)cc1", "growth rescue (activation)": "inactive: -11.3%"},
      {"compound": "Cc1ccc(-c2csc(C3=C(O)CN(NC(=O)c4ccc([N+](=O)[O-])cc4)C3=N)n2)cc1", "growth rescue (activation)": "inactive: -1.11%"},
      {"compound": "Cn1c(Cc2ccccc2)nnc1SCc1nc2ccccc2c(=O)[nH]1", "growth rescue (activation)": "inactive: -8.39%"},
      {"compound": "NS(=O)(=O)c1ccc(NC(=O)/C(=C/c2ccncc2)NC(=O)c2ccccc2)cc1", "growth rescue (activation)": "inactive: -4.83%"},
      {"compound": "COc1ccc(C2c3c(-c4ccccc4O)n[nH]c3C(=O)N2Cc2ccco2)cc1", "note": "(stereo not drawn)", "growth rescue (activation)": "inactive: 0.764%"},
      {"compound": "CCC(=O)N1CCc2cc(Br)c(S(=O)(=O)CCC(=O)NCCOC)cc21", "growth rescue (activation)": "inactive: 3.94%"},
      {"compound": "Cc1ccc(C(=O)NC(NC(=O)c2ccc(C)cc2)c2cccc([N+](=O)[O-])c2)cc1", "growth rescue (activation)": "inactive: 8.84%"},
      {"compound": "CCCCn1c(-c2ccc(S(=O)(=O)N3CCOCC3)cc2)csc1=Nc1ccccc1", "growth rescue (activation)": "inactive: -5.83%"},
      {"compound": "Cc1ccc(S(=O)(=O)NCCNC(=O)c2nonc2N)cc1", "growth rescue (activation)": "inactive: 23.4%"},
      {"compound": "CCOC(=O)NC(=O)/C(C#N)=C\\NNc1ncc(C(F)(F)F)cc1Cl", "growth rescue (activation)": "inactive: -18.5%"},
      {"compound": "O=C(/C=C/c1ccc2c(c1)OCO2)Nc1nc2ccccc2s1", "growth rescue (activation)": "inactive: -8.71%"},
      {"compound": "Cc1nonc1N1CCN(Cc2cn[nH]c2-c2ccc3c(c2)OCO3)CC1", "growth rescue (activation)": "inactive: 11.6%"},
      {"compound": "CCOc1cc(N2CCOCC2)c(OCC)cc1NCC(=O)N1CCN(Cc2ccccc2)CC1", "growth rescue (activation)": "inactive: 1.99%"},
      {"compound": "O=C(O)CC1S/C(=N\\N=C/c2ccccc2O)N(c2ccc(O)cc2)C1=O", "note": "(stereo not drawn)", "growth rescue (activation)": "inactive: -0.588%"},
      {"compound": "COc1cc(Cn2c(-c3ccc(O)c(OC)c3)nc3ccccc32)ccc1O", "growth rescue (activation)": "inactive: -15%"},
      {"compound": "CC1(C(=O)NCc2cccnc2)CCN1C(=O)Cc1cccs1", "note": "(stereo not drawn)", "growth rescue (activation)": "inactive: -1.65%"},
      {"compound": "O=C1NC2(CCCCC2)C(=O)N1Cc1cccc(C(F)(F)F)c1", "growth rescue (activation)": "inactive: 1.92%"},
      {"compound": "CCOC(=O)C(=O)N1CCC(C(=O)OC)CC1", "growth rescue (activation)": "inactive: 11.5%"},
      {"compound": "Cc1ccc(NC(=O)CSc2nc(N)cc(=O)[nH]2)cc1S(=O)(=O)N1CCOCC1", "growth rescue (activation)": "inactive: 24.1%"},
      {"compound": "CCc1ccc(OCC(=O)N/N=C(\\C)c2ccc3c(c2)OCCO3)cc1", "growth rescue (activation)": "inactive: 9.15%"},
      {"compound": "CN(C)CC(O)COC(c1ccccc1)c1ccccc1", "note": "(stereo not drawn)", "growth rescue (activation)": "inactive: -15.2%"},
      {"compound": "NS(=O)(=O)c1ccc(NC(=S)Nc2cc(Cl)c(Cl)cc2Cl)cc1", "growth rescue (activation)": "inactive: 8.43%"},
      {"compound": "O=C(COC(=O)/C=C/c1ccc([N+](=O)[O-])cc1)NCc1ccccc1", "growth rescue (activation)": "inactive: 3.61%"},
      {"compound": "COc1ccc(C(=O)C2CCCN(Cc3ccc4c(c3)OCCO4)C2)cc1F", "note": "(stereo not drawn)", "growth rescue (activation)": "inactive: 26.3%"},
      {"compound": "O=C(NO)c1ccccc1C(F)(F)F", "growth rescue (activation)": "inactive: 3.2%"},
      {"compound": "O=C(CCCN1C(=O)/C(=C\\c2cccs2)SC1=S)Nc1cccc(C(=O)O)c1", "growth rescue (activation)": "inactive: -0.838%"},
      {"compound": "CN(C(=O)c1ccc(=O)n(Cc2ccc(Cl)cc2)c1)c1ccccc1", "growth rescue (activation)": "inactive: -1.99%"},
      {"compound": "Cc1c(C(=O)N/N=C/c2ccc(N3CCOCC3)cc2)nc2ccccn12", "growth rescue (activation)": "inactive: 3.22%"},
      {"compound": "CCc1cccc(C)c1Nc1c(-c2ccc(N(C)C)cc2)nc2ncccn12", "growth rescue (activation)": "inactive: -18.8%"},
      {"compound": "Cn1cccc1/C=N/NC(N)=S", "growth rescue (activation)": "inactive: 8.52%"},
      {"compound": "CCc1ccc(CNC(=O)Cc2ccc(NC(=O)C3=C(C)OCCS3)cc2)cc1", "growth rescue (activation)": "inactive: 3.03%"},
      {"compound": "Cc1ccc(N(C(=O)c2snc(C(N)=O)c2N)C(CC(C)C)C(=O)NC2CCCC2)cc1", "note": "(stereo not drawn)", "growth rescue (activation)": "inactive: -7.47%"},
      {"compound": "O=C(CN1C(=O)C2CCCCC2C1=O)N1CCN(c2ncccn2)CC1", "note": "(stereo not drawn)", "growth rescue (activation)": "inactive: -19.5%"},
      {"compound": "Cc1noc(NS(=O)(=O)c2ccc(N/C=C\\C(=O)c3ccc(Br)cc3)cc2)c1C", "growth rescue (activation)": "inactive: 22%"},
      {"compound": "O=C(NC1CCCCCC1)C(=S)NCCc1ccccc1", "growth rescue (activation)": "inactive: 13.7%"},
      {"compound": "CC1CCC(NC(=O)C2(C)Cc3ccccc3C(=O)N2Cc2ccccc2Cl)CC1", "note": "(stereo not drawn)", "growth rescue (activation)": "inactive: 2.34%"},
      {"compound": "NNC(=O)c1ccc(COc2cccc3cccnc23)cc1", "growth rescue (activation)": "inactive: -10.3%"},
      {"compound": "Cc1nnc(SCC(=O)N2CCN(S(=O)(=O)c3ccccc3)CC2)[nH]c1=O", "growth rescue (activation)": "inactive: 8.98%"},
      {"compound": "Nc1nc(SC23CC4CC(CC(C4)C2)C3)ns1", "growth rescue (activation)": "inactive: 5.52%"},
      {"compound": "CCCc1ccc(OCc2ccc(C(=O)NN)o2)c(OC)c1", "growth rescue (activation)": "inactive: 12.5%"},
      {"compound": "O=C(CSCc1cccc(Cl)c1)Nc1ccccc1-c1ccccc1", "growth rescue (activation)": "inactive: 16.7%"},
      {"compound": "CCc1nc2c(OCc3ccc(OC)cc3)cccn2c1N(C)C(=O)C(C)C", "growth rescue (activation)": "inactive: -1.38%"},
      {"compound": "O=C(NCc1ccco1)C1CCCN1C(=O)Nc1ccccc1[N+](=O)[O-]", "note": "(stereo not drawn)", "growth rescue (activation)": "inactive: 10.6%"},
      {"compound": "CCOCCCNC(=O)c1ccc(N2CCOCC2)c(NS(=O)(=O)c2ccc(OC)cc2)c1", "growth rescue (activation)": "inactive: -5.09%"},
      {"compound": "COc1cccc(N(C(=O)c2ccco2)C(C(=O)NC2CCCC2)c2cccnc2)c1", "note": "(stereo not drawn)", "growth rescue (activation)": "inactive: 8.94%"},
      {"compound": "Cc1nn(Cc2ccc(Cl)cc2)c(C)c1NC(=O)c1cc(C(C)C)on1", "growth rescue (activation)": "inactive: 12.4%"},
      {"compound": "CS(=O)(=O)NCCCc1ccccc1", "growth rescue (activation)": "inactive: 24%"},
      {"compound": "CCN(C(=O)COC(=O)c1cc(-c2ccccc2)nc2c1c(C)nn2-c1ccccc1)C1CCS(=O)(=O)C1", "note": "(stereo not drawn)", "growth rescue (activation)": "inactive: 10.4%"},
      {"compound": "Cc1ccc(-c2csc3nc(SCC(=O)N(C)C)n(Cc4ccccc4)c(=O)c23)cc1", "growth rescue (activation)": "inactive: 3.4%"},
      {"compound": "CN1CCN(C(=O)CC2C(=O)NCCN2Cc2ccc(-c3ccccc3)cc2)CC1", "note": "(stereo not drawn)", "growth rescue (activation)": "inactive: 7.61%"},
      {"compound": "Cc1cc(C)cc(Cn2c3ccc(NC(=S)NC4CCCCC4)cc3c(=O)n2C)c1", "growth rescue (activation)": "inactive: -3.71%"},
      {"compound": "O=C(Cn1ccc2ccccc21)Nc1ccc2c(c1)OCO2", "growth rescue (activation)": "inactive: 7.8%"},
      {"compound": "CC(C)CC(=O)Nc1ncc([N+](=O)[O-])s1", "growth rescue (activation)": "inactive: 12.3%"},
      {"compound": "CC(NC(=O)C1CCN(S(=O)(=O)c2ccc(Br)s2)CC1)c1ccccc1", "note": "(stereo not drawn)", "growth rescue (activation)": "inactive: 20%"},
      {"compound": "CC(/C=C/c1ccc(OCc2ccccc2)cc1)=N\\O", "growth rescue (activation)": "inactive: 0.252%"}
    ]}
  ]
}
